Laboratory results taken from patent US12729239B2, “Anti-CEACAM5 antibodies and conjugates and uses thereof” (Merck Patent GmbH, priority 2020, dated 2026).

B1: Fab of mAb1: Fab format of antibody mAb1 (antibody)
heavy: EVQLQESGPGLVKPSQTLSLTCTVSDGSVSRGGYYLTWIRQHPGKGLEWIGYIYYSGSTYFNPSLRSRVTMSVDTSKNQFSLKLSSVTAADTAVYYCARGIAVAPFDYWGQGTLVTVSSASTKGPSVFPLAPSSKSTSGGTAALGCLVKDYFPEPVTVSWNSGALTSGVHTFPAVLQSSGLYSLSSVVTVPSSSLGTQTYICNVNHKPSNTKVDKRVEPKSC
light: EIVLTQSPATLSVSPGERATLSCRTSQSVRSNLAWYQQKPGQAPRLLIYAASTRATGIPARFSGSGSGTEFTLTISSLQSEDFAVYYCQQYTNWPFTFGPGTKVDIKRTVAAPSVFIFPPSDEQLKSGTASVVCLLNNFYPREAKVQWKVDNALQSGNSQESVTEQDSKDSTYSLSSTLTLSKADYEKHKVYACEVTHQGLSSPVTKSFNRGEC
B2: mAb1: anti-CEACAM5 IgG1 antibody, two heavy chains SEQ ID NO: 13 and two light chains SEQ ID NO: 14 (antibody)
heavy: EVQLQESGPGLVKPSQTLSLTCTVSDGSVSRGGYYLTWIRQHPGKGLEWIGYIYYSGSTYFNPSLRSRVTMSVDTSKNQFSLKLSSVTAADTAVYYCARGIAVAPFDYWGQGTLVTVSSASTKGPSVFPLAPSSKSTSGGTAALGCLVKDYFPEPVTVSWNSGALTSGVHTFPAVLQSSGLYSLSSVVTVPSSSLGTQTYICNVNHKPSNTKVDKRVEPKSCDKTHTCPPCPAPPVAGPSVFLFPPKPKDTLMISRTPEVTCVVVDVSHEDPEVKFNWYVDGVEVHNAKTKPREEQYNSTYRVVSVLTVLHQDWLNGKEYKCKVSNKALPSSIEKTISKAKGQPREPQVYTLPPSREEMTKNQVSLTCLVKGFYPSDIAVEWESNGQPENNYKTTPPVLDSDGSFFLYSKLTVDKSRWQQGNVFSCSVMHEALHNHYTQKSLSLSPG
light: EIVLTQSPATLSVSPGERATLSCRTSQSVRSNLAWYQQKPGQAPRLLIYAASTRATGIPARFSGSGSGTEFTLTISSLQSEDFAVYYCQQYTNWPFTFGPGTKVDIKRTVAAPSVFIFPPSDEQLKSGTASVVCLLNNFYPREAKVQWKVDNALQSGNSQESVTEQDSKDSTYSLSSTLTLSKADYEKHKVYACEVTHQGLSSPVTKSFNRGEC
modifications: HC of mAb1; LC of mAb1

What was measured:
[1] = target: cynomolgus_monkey-CEACAM5; assay: Octet Red binding affinity, captured Macaca fascicularis CEACAM5 ECD; conditions: Fab format, KD=kd/ka
Description: • To determine the binding affinity of soluble antibody analyte to captured target protein CEACAM5 (human or cynomolgus monkey Macaca fascicularis). […] Selectivity a) Species and Domains

[2] = test system: other human CEACAM family members (huCEACAM6, huCEACAM1, huCEACAM3, huCEACAM7, huCEACAM8, huPSG1); assay: Selectivity ELISA of Fab, other human CEACAM family members; type: binding; conditions: even when using 1000 nM Fab
Description: (§1) Selectivity determination for Fab of mAb1 to human CEACAM5 and other human CEACAM family members was done in ELISA assay. Proteins were coated on 96-well assay plates: huCEACAM5-His6 (R&D Systems #4128-CM), huCEACAM6-His6 (3934-CM R&D Systems and recombinant protein obtained from Syngene), huCEACAM1-His6 (2244-CM R&D Systems), huCEACAM3-His6 (C449 Novoprotein), huCEACAM7-His6 (C926 Novoprotein), huCEACAM8-His6 (C583 Novoprotein), huPSG1-His6 (CC66 Novoprotein), each protein was coating the plate at 12 nM concentration.

[3] = target: unrelated protein (BSA) (Bos taurus, UniProt P02769); assay: Selectivity ELISA of Fab, unrelated protein; type: binding; conditions: all concentrations tested
Sequence of unrelated protein (BSA) (P02769 25-607): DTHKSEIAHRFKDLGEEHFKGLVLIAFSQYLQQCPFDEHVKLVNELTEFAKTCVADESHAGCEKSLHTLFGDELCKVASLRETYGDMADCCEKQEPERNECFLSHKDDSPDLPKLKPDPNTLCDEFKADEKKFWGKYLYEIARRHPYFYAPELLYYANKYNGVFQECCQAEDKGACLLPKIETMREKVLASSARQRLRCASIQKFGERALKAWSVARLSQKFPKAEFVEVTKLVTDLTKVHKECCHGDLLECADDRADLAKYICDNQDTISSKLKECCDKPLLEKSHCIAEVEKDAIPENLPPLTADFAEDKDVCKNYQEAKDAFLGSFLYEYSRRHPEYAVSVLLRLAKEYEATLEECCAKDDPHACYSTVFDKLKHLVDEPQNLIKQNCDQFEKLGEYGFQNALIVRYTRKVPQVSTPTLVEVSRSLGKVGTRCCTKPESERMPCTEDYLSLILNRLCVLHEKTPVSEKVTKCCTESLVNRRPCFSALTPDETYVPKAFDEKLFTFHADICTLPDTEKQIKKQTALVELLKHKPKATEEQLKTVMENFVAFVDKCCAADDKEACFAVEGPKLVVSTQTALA
Description: as §1

[4] = test system: recombinant Macaca fascicularis (mf) CEACAM5 ECD; assay: Selectivity ELISA (species and domains), mfCEACAM5 ECD; conditions: 1 μg/ml bound protein, read-out: Binding EC50 to mfCEACAM5
Method: (§2) Selectivity determination for mAb1 was done by titrating the antibody from 4 nM to 0.25 pM and applying it on 1 μg/ml bound recombinant human (rh) CEACAM5 ECD or its domains N-A1-B1, A2-B2, A3-B3 or bound recombinant Macaca fascicularis (mf) CEACAM5 ECD, all obtained from Syngene, in an ELISA assay.

[5] = target: BSA (bovine serum albumin) (Bos taurus, UniProt P02769); assay: Selectivity ELISA (species and domains), BSA negative control; type: binding; conditions: negative control protein
Sequence of BSA (bovine serum albumin) (P02769 25-607): as above
Method: as §2

| Molecule | Kd [1] | Binding to the other human CEACAM family members [2] | Binding to unrelated protein (BSA) [3] | EC50 [4] | Binding to BSA [5] |
| --- | --- | --- | --- | --- | --- |
| B1 | 14.1 ± 2.53 nM | did not bind | did not bind | – | – |
| B2 | – | – | – | 0.324 nM | No binding |
